Hit rate of the full screen: of about 390,000 compounds, about 4,700 (1.2%) were called active. The inconclusive results got no clear call from the source; some entries with a clear call stand among them for comparison. Calls follow the shape of the dose curve; as a rule, active = well fitted inhibition curve with a large enough effect; inconclusive = small, poorly fitted or top-dose-only effect, or another doubt; inactive = no such curve, though single readings can be large or run the other way. Potencies beside an inconclusive call are fits to weak or partial responses and may not hold up.
target: DNA polymerase eta (Homo sapiens) (UniProt Q9Y253); assay: qHTS for Inhibitors of Polymerase Eta; settings: recombinant Pol eta, fluorescent DNA replication assay; series mostly up to 114 µM
UniProt Q9Y253, sequence (Q9Y253 whole entry, looked up): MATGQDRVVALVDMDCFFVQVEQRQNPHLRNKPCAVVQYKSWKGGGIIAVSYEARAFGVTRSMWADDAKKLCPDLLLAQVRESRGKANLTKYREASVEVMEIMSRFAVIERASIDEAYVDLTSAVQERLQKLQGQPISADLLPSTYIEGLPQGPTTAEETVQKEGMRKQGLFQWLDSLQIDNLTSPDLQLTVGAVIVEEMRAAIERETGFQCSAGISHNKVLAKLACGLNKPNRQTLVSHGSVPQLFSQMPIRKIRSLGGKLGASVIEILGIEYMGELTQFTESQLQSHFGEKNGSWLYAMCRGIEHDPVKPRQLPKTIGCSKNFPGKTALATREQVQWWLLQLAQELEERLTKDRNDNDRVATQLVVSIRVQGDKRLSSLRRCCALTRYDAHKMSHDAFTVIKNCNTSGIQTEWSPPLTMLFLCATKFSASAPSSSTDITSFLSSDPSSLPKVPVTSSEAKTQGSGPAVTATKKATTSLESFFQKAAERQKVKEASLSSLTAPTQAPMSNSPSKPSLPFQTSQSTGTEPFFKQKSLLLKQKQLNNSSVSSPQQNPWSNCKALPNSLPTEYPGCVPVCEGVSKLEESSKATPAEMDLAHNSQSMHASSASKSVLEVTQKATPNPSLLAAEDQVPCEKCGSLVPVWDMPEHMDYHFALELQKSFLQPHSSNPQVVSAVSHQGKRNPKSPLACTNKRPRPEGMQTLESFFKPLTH
Method in brief: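 Pol eta (10 nM) was preincubated with compounds for 15 min at room temperature, after which fluorescent replication substrate (50 nM final) was added to start the reaction. Fluorescence was read kinetically at 0 and 10 min.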
Potency is read from the fitted curve at half-maximal effect; tags tell the direction and shape of the fitted curve.

Compound	Potency
CN1CCN(C(=O)Cn2ncc3c4ccccc4n(Cc4ccc(Cl)cc4)c3c2=O)CC1	inactive
COc1cccc(-c2nc(CS(=O)CC(=O)NC3CCCCC3)c(C)o2)c1 (configuration not stated)	inactive
COc1ccccc1CNc1nc2c(S(=O)(=O)c3ccccc3)nnn2c2ccc(Cl)cc12	inactive
COc1ccc(/C=N/NC(=O)c2[nH]nc3c2CCc2ccccc2-3)cc1OC	inconclusive: 17.8 µM [inhibitor, partial curve, poor fit]
CN(CC(=O)NCc1ccco1)CC(=O)Nc1c(Cl)cccc1Cl	inactive
NC(=O)CSc1oc(-c2cccs2)nc1S(=O)(=O)c1ccccc1	inconclusive: 15.8 µM [inhibitor, partial curve, poor fit]
CCc1ccc(NC(=O)C(C)OC(=O)c2ccc(NS(=O)(=O)c3ccc(C)c([N+](=O)[O-])c3)cc2)cc1 (configuration not stated)	active: 79.4 µM
COc1cc(/C=C(\C#N)C(=O)N2CCOCC2)ccc1OCc1ccccc1	inactive
Cc1ccc(-c2cc(C(=O)Nc3ccccc3C)c3ccccc3n2)o1	inconclusive: 17.8 µM [inhibitor, single point]
O=C(COc1ccc([N+](=O)[O-])cc1)Nc1ccc(S(=O)(=O)N2CCOCC2)cc1	inconclusive: 50.1 µM [inhibitor, partial curve, poor fit]
COc1ccc2nc(NC(=O)c3cc(=O)c4cc(C)cc(C)c4o3)sc2c1	inconclusive: 39.8 µM [inhibitor, single point]
COc1ccc2c(c1)N(C)/C(=C/c1cccc[n+]1C)S2	inactive
CCOC(=O)c1c(C)nc(C)c(C(=O)OCC)c1-c1ccco1	inconclusive: 50.1 µM [inhibitor, single point]
O=C1C(=Cc2cccn2-c2ccc(O)cc2)C(=O)c2ccccc21	inconclusive: 7.94 µM [inhibitor, partial curve, poor fit]
Cc1cc(C)n2nc(C(=O)OCC(=O)NC3CCS(=O)(=O)C3)nc2n1 (configuration not stated)	inactive
O=c1[nH]n2c(=O)c3c([nH]c2c1N=Nc1cccc(Cl)c1)CCCC3	inconclusive: 20 µM [inhibitor, full curve, poor fit]
COc1cccc(CNC(=O)c2nnn(CC(=O)Nc3cc(C)ccc3C)c2N)c1	inconclusive: 50.1 µM [inhibitor, partial curve, poor fit]
Cc1cc(C(=O)C(=O)Nc2nncs2)c(C)n1-c1ccc(Cl)cc1	inconclusive: 79.4 µM [inhibitor, single point]
Cc1ccc(NC(=S)NC(=O)/C=C/c2ccco2)c(O)c1	inconclusive: 14.1 µM [inhibitor, full curve, poor fit]
CC(C)(C)NC(=O)C(c1ccncc1)N(Cc1cccs1)C(=O)Cn1nnc(-c2ccc(F)cc2)n1 (configuration not stated)	inconclusive: 39.8 µM [inhibitor, partial curve, poor fit]
CCN1CCN(C(c2ccccc2Cl)c2c(O)cc(C)n(Cc3ccco3)c2=O)CC1 (configuration not stated)	inactive

Compound	Potency
Cc1c(C(=O)N/N=C/c2ccc(N(C)C)cc2)[nH]c2ccc(Cl)cc12	inconclusive: 25.1 µM [inhibitor, partial curve, poor fit]
CNc1ccccc1NC(=O)CCn1c(=S)oc2ccccc21	inconclusive: 89.1 µM [inhibitor, partial curve, poor fit]
COc1ccccc1CNC(=O)CCn1cnc2ccccc2c1=O	active: 50.1 µM
CN(CC(=O)Nc1ccc(Cl)c(C(F)(F)F)c1)C(=O)C1CC(=O)N(C2CCCC2)C1 (configuration not stated)	inactive
COc1ccc(C(=O)COC(=O)CN2C(=O)NC3(CC(C)CC(C)(C)C3)C2=O)c(OC)c1 (configuration not stated)	inconclusive: 25.1 µM [inhibitor, partial curve]
CN(C)c1ccc(CNC(=O)CN2C(=O)C3CCCCN3c3ccc(C(=O)N4CCCC4)cc32)cc1 (configuration not stated)	inactive
Cc1ccc(N2C(=O)N3[C@H](c4ccc(F)cc4)[C@@H]4C(=O)N(C5CCCCC5)C(=O)[C@@H]4[C@]3(Cc3ccccc3)C2=O)cc1	inconclusive: 89.1 µM [inhibitor, partial curve, poor fit]
O=[N+]([O-])c1c(Nc2ccccn2)cc(Cl)c2nonc12	inconclusive: 56.2 µM [inhibitor, partial curve, poor fit]
Nc1nc(CN2CCN(C(c3ccccc3)c3ccccc3)CC2)nc(Nc2ccccc2)n1	inconclusive: 100 µM [inhibitor, partial curve, poor fit]
CCN(C(=O)COC(=O)c1c2c(nc3ccccc13)CCC2)c1c(N)n(Cc2ccccc2)c(=O)[nH]c1=O	inconclusive: 17.8 µM [inhibitor, full curve, poor fit]
CCOC(=O)c1ccc2ncc(C(=O)OCC)c(Nc3ccc(N4CCOCC4)cc3)c2c1	inconclusive: 25.1 µM [inhibitor, partial curve, poor fit]
Cc1nnc(SCC(=O)N2N=C(c3ccc(Cl)cc3)CC2c2ccco2)[nH]c1=O (configuration not stated)	inconclusive: 56.2 µM [inhibitor, partial curve, poor fit]
Cc1ccccc1Nc1nn2c(=O)c3ccc(C(=O)NCc4cccs4)cc3nc2s1	inconclusive: 89.1 µM [inhibitor, single point]
Cc1cc(C(=O)OCC(=O)c2cccc([N+](=O)[O-])c2)c2cccc(C)c2n1	inconclusive: 20 µM [inhibitor, partial curve]
Cc1c2cnn(CC(=O)NCc3ccc(Cl)cc3)c(=O)c2c(C)n1Cc1ccc(F)cc1	inactive
Cc1ccc2sc(N(CCCN(C)C)C(=O)c3ccc(Br)s3)nc2c1C	inconclusive: 89.1 µM [inhibitor, partial curve, poor fit]
COc1ccc(-c2cc(=O)c3c(O)cc(O[C@@H]4O[C@H](CO[C@@H]5O[C@@H](C)[C@H](O)[C@@H](O)[C@H]5O)[C@@H](O)[C@H](O)[C@H]4O)cc3o2)cc1O	active: 79.4 µM
CCOc1ccc(/C=C2\SC(=S)N(CCC(=O)Nc3cccc(C(=O)O)c3)C2=O)cc1	active: 44.7 µM
COc1ccc(NC(=O)c2c(F)cccc2F)cc1S(=O)(=O)Nc1ccc(Br)cc1	inconclusive: 79.4 µM [inhibitor, partial curve, poor fit]
COC(=O)c1cc(Cl)c(NC(=O)c2cc3ccccc3o2)cc1OC	inconclusive: 79.4 µM [inhibitor, partial curve, poor fit]
CCOc1ccccc1CNC(=O)Cn1nc(C)c2c(C)n(-c3ccc(C)cc3)nc2c1=O	inconclusive: 44.7 µM [inhibitor, partial curve]

Compound	Potency
COc1cccc(C2CC(c3ccccc3)=NN2S(=O)(=O)c2ccc(C)cc2)c1OC (configuration not stated)	inconclusive: 50.1 µM [inhibitor, partial curve]
Cc1ccc(C)c(SCC(=O)OC/C(O)=C(\C#N)c2nc3ccccc3[nH]2)c1	active: 44.7 µM
CN(C)c1ccc(C=c2c3ccccc3n3c2cc(-c2ccc(Cl)cc2)[n+]3C)cc1	inconclusive: 14.1 µM [inhibitor, partial curve, poor fit]
Clc1ccc(CSc2nnc(-c3cccnc3)n2Cc2ccco2)c(Cl)c1	inconclusive: 17.8 µM [inhibitor, partial curve, poor fit]
CCc1cc2c3c(c1)C(C)CC(C)(C)N3C(=O)/C2=C1\SC(=O)NC1=O (configuration not stated)	inconclusive: 79.4 µM [inhibitor, partial curve, poor fit]
Cc1ccc(C(=O)N/N=C/c2c(O)ccc3ccccc23)cn1	active: 50.1 µM
COc1ccccc1OCCC(=O)O	inconclusive: 100 µM [inhibitor, partial curve, poor fit]
COc1cc(C2C(C#N)=C(N)OC3=C2C(=O)CCC3)c([N+](=O)[O-])cc1OC (configuration not stated)	active: 20 µM
Nc1ccc(Oc2ncccn2)cc1	active: 39.8 µM
COc1cc(O)cc(/C=C/c2ccccc2)c1	inactive
O=C(CSc1ccccc1F)NC(=O)NCc1ccco1	inconclusive: 79.4 µM [inhibitor, partial curve, poor fit]
COc1ccc(COCC(O)CN2CCN(S(=O)(=O)c3ccc(C(C)C)cc3)CC2)cc1 (configuration not stated)	inconclusive: 35.5 µM [inhibitor, partial curve, poor fit]
Cc1ccc(-c2ccc(/C=C3\SC(N4CCOCC4)=NC3=O)o2)cc1	inconclusive: 14.1 µM [inhibitor, full curve, poor fit]
O=C(O)CSc1nc(-c2ccc(Cl)cc2)nc2c1oc1ccccc12	inconclusive: 44.7 µM [inhibitor, partial curve]
O=C(Nc1cccc(O)c1)c1ccc(C(F)(F)F)cc1	inconclusive: 89.1 µM [inhibitor, partial curve, poor fit]
CCOC(=O)c1cc(C(=O)c2cccs2)n2ccc(C(C)=O)cc12	inconclusive: 3.16 µM [inhibitor, full curve]
COc1ccc(S(=O)(=O)n2nc(C)c(S(=O)(=O)N3CCCCCC3)c2C)cc1C	inconclusive: 89.1 µM [inhibitor, single point]
CCc1nn(-c2cc(Oc3cccc4ccccc34)nc(-c3ccccc3)n2)c(N)c1C#N	inconclusive: 2.82 µM [inhibitor, full curve, poor fit]
N#Cc1ccsc1NC(=O)COC(=O)CCCSc1nc2ccccc2s1	inconclusive: 14.1 µM [inhibitor, full curve, poor fit]
Cc1ccc2c(c1)cc1c(=O)n(Cc3ccccc3Cl)nc(C)n12	inactive
